Measurements as given in the supplement of paper PMC3334620.
In all, about 33,000 sequences were measured (“E-score (-0.5 to 0.5)”: median about -0.013, highest 2% from about 0.3 on). The list shows a part of the results.

What follows are sequences tested against T1, Msn1 (UniProt P22148) (assay: PBM E-score (8-mer binding enrichment) (E-score (-0.5 to 0.5)); higher = stronger / more preferred TF binding; most listed sequences are background and not binding sites). Conditions: protein concentration: 200 nM; construct: GST-full length.
T1 sequence: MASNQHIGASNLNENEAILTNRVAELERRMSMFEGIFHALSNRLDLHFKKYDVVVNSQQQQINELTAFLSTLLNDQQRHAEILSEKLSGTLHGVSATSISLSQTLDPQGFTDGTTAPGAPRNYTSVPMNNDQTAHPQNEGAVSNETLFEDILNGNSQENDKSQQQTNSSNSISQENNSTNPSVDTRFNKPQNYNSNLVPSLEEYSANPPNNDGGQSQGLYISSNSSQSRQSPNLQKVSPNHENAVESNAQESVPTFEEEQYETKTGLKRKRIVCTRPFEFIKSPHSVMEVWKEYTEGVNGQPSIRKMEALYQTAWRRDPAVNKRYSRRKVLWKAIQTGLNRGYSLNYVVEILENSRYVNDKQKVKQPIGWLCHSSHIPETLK
In short: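 Yeast transcription factors carrying a GST tag, as full-length proteins or DNA-binding domains, were produced by PURExpress in vitro transcription/translation. About 100-200 nM protein was applied to universal all-10-mer Agilent arrays, double-stranded by primer extension on fresh or once-stripped slides. Bound protein was detected with fluorescent anti-GST, and scans were normalised with masliner. The Universal PBM Analysis Suite gave each ungapped eight-base word, pooled with its reverse complement, an E-score, a modified Wilcoxon-Mann-Whitney statistic.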

Sequence | PBM E-score
ATTATACA | 0.126
CCGAACCG | 0.00404
AGCGACAT | 0.252
CAACAGCG | -0.192
CGGAGGAG | -0.119
ACGCTCGG | 0.053
AACGCCCT | -0.158
CTTAAGTC | 0.0734
GAGGGACC | -0.268
CAAATCGC | -0.0738
GGGGCCAC | -0.325
GCCGGCAC | 0.115
GGATGCAC | -0.15
ATTCGAAA | 0.0661
AGTTGGTC | -0.0955
ACATATAA | 0.276
AACTACGT | -0.0327
GTTAGCCA | -0.179
ATGACAGA | 0.137
ATTACAGG | 0.0652
ATCTAAGA | 0.159
ACGTAACA | 0.0355
AAGGGAAC | -0.291
ACGGCCGT | -0.204
GGACCGAA | 0.155

Sequence | PBM E-score
CGCAATAA | 0.212
TAGTGCAA | 0.0976
CATAACGA | -0.0508
ATGTGTGC | -0.0431
CTTGCGGA | -0.0335
GGAAAGAC | -0.0443
TCTATTAA | 0.0653
AGTCCAAG | 0.0604
GAAATTTA | 0.226
ATAAAAGG | 0.0311
GCGACCTA | 0.0106
AGGACAAC | 0.436
GCTGGTGA | -0.0671
CCTAAGCG | -0.0144
GCAATACC | -0.00772
GGCAAAAC | -0.0158
CACGAAAC | -0.0336
CCGTGCCA | -0.27
TAGCAGCA | 0.0532
CCGACGCG | -0.0341
TAATGGGA | -0.0259
ATATAAGC | -0.0877
ACATGCTC | 0.028
ACGATATA | -0.0323
CACAGAAG | 0.00761

Sequence | PBM E-score
CCTCCAAC | -0.208
TCATCCGA | 0.183
ACGTGGCA | -0.257
AGGTTGTA | 0.0888
ACCCACGG | -0.17
CCGCCTCG | -0.0878
TTCATAAA | 0.0858
GGCGACGA | -0.071
CGGGCTTC | -0.144
ACAGGAAC | 0.22
AAATGCGA | 0.145
GCATTGTA | -0.16
GACTTATA | 0.276
ATCTCGGA | 0.241
AGTGTCGA | 0.1
CAATTGTC | 0.445
ACACTACG | 0.049
AGGAGTCA | -0.0247
CGACGACA | 0.17
CGTTCGAG | -0.0922
ACCACGGC | -0.0184
AATGTCGA | 0.299
GGAAGAAC | -0.012
CAACAGTG | 0.0581
ACACCCCA | -0.0684

Sequence | PBM E-score
CTACTACA | 0.241
GAATTATA | 0.161
CGATTGAG | -0.043
ACTATGAG | -0.147
ACGACTAC | -0.0678
GCTGTGAC | -0.0226
ATCCTCCA | -0.167
TCTGTTCA | -0.0656
CTATAGGA | 0.13
ACACCTCA | -0.233
ACCGGCTC | -0.0223
GACGCACA | -0.0238
ATAACTAG | 0.1
ACCCTGAG | -0.0157
CTATGATC | -0.0722
TCCGAAAA | 0.11
ACTCTCGG | 0.00291
CAAAGACC | -0.0488
GATGGACA | 0.443
CACCCATA | -0.211
GAATCGGC | -0.00123
GTTCAAAA | -0.0457
CCAGGTTA | 0.0256
GTGAGAGA | -0.0903
ACGTGACC | -0.0943

Sequence | PBM E-score
GATAAGCA | -0.0944
ACGCAGCA | -0.0115
AGGCACAC | -0.183
AGGGGTGC | -0.284
CATCTGAG | -0.00958
CGATACTA | 0.0538
CACTATCG | 0.0155
TGATGGCA | -0.317
ATGATTGC | 0.0731
AGCTTCGG | 0.075
CACTGGCC | -0.0854
CTCCGCAA | -0.108
CCATTAAA | 0.0533
AGAAGATA | 0.0458
CGTTTATA | 0.0564
CTTCCGGC | -0.0143
CCTCGAGG | -0.159
CGACATCC | 0.0825
AAGGCAAA | 0.111
ACGTTCTA | -0.00887
AGATTTCC | 0.00061
CAACGGGA | 0.123
ACCGCTTG | 0.0976
AGTAGAAT | 0.112
CTGGTCTA | -0.169

Sequence | PBM E-score
GCCGACTA | 0.0514
CTAAAATC | -0.0653
TGAAATAA | 0.217
GCTTTTAA | -0.0535
CCGCATCG | -0.132
TACGAGAA | 0.0646
TCGCGAAA | 0.161
GTGGTACA | 0.13
CGCGTGAC | 0.0142
AACAGGAG | -0.156
AGACGAGC | -0.14
GCCTCCAA | -0.0938
CTGCGCTA | -0.285
GCCGGAGA | 0.0857
CCATGACG | 0.0865
GAATACCC | -0.167
CTTTATAC | 0.0824
CAGACTCC | -0.176
ACAAGTAA | 0.0641
CGCCAGAC | -0.0965
ACTAATCT | -0.0304
ACACGATC | 0.0223
AGGCTGGA | -0.303
CATCCGCC | -0.0302
AGATTAGA | -0.0445

Sequence | PBM E-score
GAGCTGCA | -0.268
AAGTTCGT | 0.0437
CCGTCATC | -0.127
ATGATTCA | -0.135
CGCGCCCC | -0.0871
ATGACCTA | 0.0998
GAAAGTGC | -0.0805
GCTGAGCA | -0.0486
GAGCGACA | 0.202
CTTTAAGA | 0.229
GCCCGCCC | -0.28
CACAGTAA | 0.189
GTTAACCA | 0.0597
GTGCAAGA | 0.0666
ATTATTCC | 0.121
ACTCACAT | -0.18
ACGCAGAC | 0.0449
ATGGGTGG | -0.145
ACCGTTCA | 0.053
ATGTGACG | -0.223
ACATTTGG | 0.177
GTAGCTGA | -0.235
